Entries after “also recorded” stand apart in the source; their conditions may differ. For some of these results: At least one peptide structure holds a part that was inferred or is arguable (an end, a ring closure or a residue). For some of these results: At least one structure is not confirmed: it was looked up by name or label, or the drawing left a doubt. Residues, ends and D or L forms follow the SMILES beside them. No end group written: not given here.
Key:
[1] = Peptide-induced elevation of plasma insulin after IVGTT; type: in vivo; conditions: one minute after IVGTT (0.4g/kg glucose), Wistar rats
Protocol: Wistar rats are fasted overnight (17 hrs) and then anesthetized with pentobarbital (0.1 ml/100 g BW). Glucose (0.4 g/kg dissolved in 1% human albumin-saline) +/- peptide (dissolved in 1% human albumin-saline) is injected intravenously into the tail vein. The rats are eye-bled 1 minute after the injection and 50-100ul of the plasma are assayed for insulin level with the Linco RIA kit (Linco Research, Inc., St. Charles, MO).
(§1) In accordance with the protocol of example 2 above, overnight fasted Wistar rats were anesthetized with pentobarital; i.v. injected with glucose ± peptide and eye bled after 1 minute. N=12 rats/group. […] The peptide or vehicle was given i.v. followed by a glucose load given i.p. in accordance with example 3. The plasma glucose was followed over the time period indicated.
Plasma insulin: Data are expressed as % of plasma insulin one minute after IVGTT (0.4g/kg glucose) with either saline, 0.1nmol/kg P51, P55, P60, P66 or 1 nmole/kg of the other peptides including peptides which are not part of the present invention in Wistar rats. Blood was drawn from the eye and insulin was measured with the rat insulin RIA kit (Linco Research, Inc, St. Charles, MO).

PACAP-R3 = molecular target: T1, PACAP-R3 (Homo sapiens, UniProt P41587); experiment: Cyclic AMP SPA on CHO cells expressing PACAP R3; type: cell-based; design: expressed in transfected cells; host or cells: CHO cells; conditions: cAMP SPA, CHO cells transfected with PACAP-R3; EC50 = concentration at which 50% of maximum PACAP27 activity is achieved; NA = no detectable activities
T1 sequence (P41587 24-438): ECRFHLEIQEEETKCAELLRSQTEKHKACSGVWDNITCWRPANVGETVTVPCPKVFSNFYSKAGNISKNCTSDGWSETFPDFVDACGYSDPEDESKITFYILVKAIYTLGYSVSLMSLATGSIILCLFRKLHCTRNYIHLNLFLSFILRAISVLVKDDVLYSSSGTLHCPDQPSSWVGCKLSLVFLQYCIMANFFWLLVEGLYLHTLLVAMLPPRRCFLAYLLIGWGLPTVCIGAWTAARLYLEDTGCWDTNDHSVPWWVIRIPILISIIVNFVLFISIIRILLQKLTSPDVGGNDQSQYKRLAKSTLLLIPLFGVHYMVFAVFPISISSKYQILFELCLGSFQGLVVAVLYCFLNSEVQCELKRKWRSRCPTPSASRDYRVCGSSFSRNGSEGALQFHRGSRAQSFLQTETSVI
Protocol: CHO cells expressing the PACAP R3 were plated in 96-well plates (Costar) at 8 x 10^4 cell/well and grown at 37C for 24 hours in a MEM + nucleosides + glutamine (Giobco BRL), 10% FBS, 100 µg/ml Pen/Strep, 0.3 mg/ml glutamine, 1 mM HEPES, 0.5 mg/ml Geneticin (Gibco BRL). The media was removed and the plates were washed with PBS. The cells were incubated with a peptide, in Hepes-PBS-BSA with 0.4mg/mlSoybean Trypsin inhibitor, 0.5 mg/ml Bacitracin, 100uM IBMX, for 15 min at 37 C. Cyclic AMP in the ceii extracts was quantitated using the cAMP SPA direct screening assay system (Amersham Pharmacia Biotech Inc, Piscataway, NJ,). The peptides shown in Table 3 were assayed for cAMP activity.
EC50 is defined as the concentration of the polypeptide at which 50% of maximum PACAP27 activity is achieved. "NA" denotes no detectable activities. "R3 Selectivity" is derived from the ratio of EC50 at R2 versus EC50 at R3. […]

[2] = Intraperitoneal glucose tolerance test (IPGTT), plasma glucose; type: in vivo, Wistar rats; conditions: for glucose disposal in the rat: 1 nmole/kg dose, subcutaneous route, FIG. 7 legend; for Plasma Glucose (% of Basal) s.c.: 1 nmol/kg peptide s.c.
Protocol: Wistar rats are fasted overnight and then anesthetized with pentobarbital. The rats were eye-bled (zero time) and the peptide ( in 1% human albumin) was injected into the tail vein. Five minutes later, 1 g/kg of glucose (in saline) was injected intraperitoneally, and the rats were eye-bled after 15, 30 and 60 minutes. Plasma glucose levels were determined using the Technicon Axon autoanalyzer, Bayer Diagnosics division of Bayer Corporation, Tarrytown NY, operated using Method No. SM4-2143F90 "Glucose".
as §1
Wistar rats were fasted overnight and then anesthetized with Pentobarbital. The rats were eye-bled (zero time) and the peptide (in 1 % human albumin) was injected subcutaneously. Five minutes later, 1 g/kg of glucose (in saline) was injected intraperitoneally, and the rats were eye-bled after 30 minutes.
Plasma glucose: Data are expressed as % of vehicle of plasma glucose area under the curve after IPGTT (1 g/kg glucose) after treatment with 1 nmol/kg dose of the peptide. […] The present Inventors have shown for the first time that this is because the effects of R2 and R3 on glucose tend to cancel each other out. […] Therefore, R3-selectlvlty appears to be a desirable attribute for medicaments which are to be employed in achieving blood glucose reduction, for treatment of type 2 diabetes.

rat islets = experiment: Insulin release from isolated rat islets; type: cell-based, Sprague-Dawley rats; conditions: for Islet Insulin Release (% of Basal): peptide 10nM for 2hrs, 8mM glucose, % of [insulin] in 8mM glucose alone
Protocol: Sprague Dawley rats (275-320 g) were used as the source of donor islets. Briefly, the pancreas was filled with 10 ml of cold reconstituted Liberase RI (Boehringer Manheim), harvested and incubated with additional 5 ml enzyme solution in water bath for 30 minutes. Tissue suspension was washed twice with cold 10% FBS/Hanks buffer (Gibco), resuspended in 8 ml 25% ficoll (Sigma) and then layered with 5 ml each of 23%, 20% and 11 % ficoll. The islets in the 20% layer after centrifugation were removed, washed twice with cold 10% FBS/Hank buffer and resuspended in 10% FBS/RPMI 1640 media (Sigma).
Islet insulin release: Rat islets were isolated from Sprague-Dawley rats as described in example 1 and treated with either vehicle or specified peptide (10nM) for 2hrs. Insulin concentration in the medium was measured with the Linco rat insulin RIA kit. Glucose concentration in the medium was 8mM. The data are expressed as % of [insulin] in 8mM glucose alone. No polypeptide-induced Increases in insulin concentration were observed al 3 mM glucose; thus, the insulin releasing activity of these polypeptides are glucose-dependent. It should be noted that the following Table includes data for polypeptides which are not part of the present invention.

[3] = plasma glucose area under the curve after IPGTT (1 g/kg glucose), % of vehicle

Row | Compound | Plasma Insulin (% of Basal) ([1]; 1 nmole/kg peptide i.v.) | Islet Insulin Release (% of Basal) (rat islets) | Plasma Insulin (% of Basal) ([1]; 0.1nmol/kg peptide i.v.) | also measured
1 | CC[C@H](C)[C@H](NC(=O)[C@H](CO)NC(=O)[C@H](CCC(N)=O)NC(=O)[C@H](CC(C)C)NC(=O)[C@H](Cc1ccc(O)cc1)NC(=O)[C@H](CCCCN)NC(=O)[C@H](CCCCN)NC(=O)[C@@H](NC(=O)[C@H](C)NC(=O)[C@@H](NC(=O)[C@H](CCC(N)=O)NC(=O)[C@H](CCCCN)NC(=O)[C@H](CCCNC(=N)N)NC(=O)[C@H](CC(C)C)NC(=O)[C@H](CCCNC(=N)N)NC(=O)[C@@H](NC(=O)[C@H](Cc1ccc(O)cc1)NC(=O)[C@H](CC(N)=O)NC(=O)[C@H](CC(=O)O)NC(=O)[C@@H](NC(=O)[C@H](Cc1ccccc1)NC(=O)[C@@H](NC(=O)[C@H](C)NC(=O)[C@H](CC(=O)O)NC(=O)[C@H](CO)NC(=O)[C@@H](N)Cc1c[nH]cn1)C(C)C)[C@@H](C)O)[C@@H](C)O)C(C)C)C(C)C)C(=O)N[C@@H](CCCCN)C(=O)N[C@@H](CCCCN)C(=O)N[C@@H](CCCCN)C(=O)N[C@@H](CCCNC(=N)N)C(=O)O [Peptide R3P80] | 360 % of Basal | – | – | –
2 | CC[C@H](C)[C@H](NC(=O)[C@H](CO)NC(=O)[C@H](CCC(N)=O)NC(=O)[C@H](CC(C)C)NC(=O)[C@H](Cc1ccc(O)cc1)NC(=O)[C@H](CCCCN)NC(=O)[C@H](CCCCN)NC(=O)[C@H](C)NC(=O)[C@H](C)NC(=O)[C@@H](NC(=O)[C@H](CCC(N)=O)NC(=O)[C@H](CCCCN)NC(=O)[C@H](CCCNC(=N)N)NC(=O)[C@H](CC(C)C)NC(=O)[C@H](CCCNC(=N)N)NC(=O)[C@@H](NC(=O)[C@H](Cc1ccc(O)cc1)NC(=O)[C@H](CC(N)=O)NC(=O)[C@H](CC(=O)O)NC(=O)[C@@H](NC(=O)[C@H](Cc1ccccc1)NC(=O)[C@@H](NC(=O)[C@H](C)NC(=O)[C@H](CC(=O)O)NC(=O)[C@H](CO)NC(=O)[C@@H](N)Cc1c[nH]cn1)C(C)C)[C@@H](C)O)[C@@H](C)O)C(C)C)C(=O)N[C@@H](CCCCN)C(=O)N[C@@H](CC(N)=O)C(=O)N[C@@H](CCCCN)C(=O)N[C@@H](CCCNC(=N)N)C(=O)N[C@@H](Cc1ccc(O)cc1)C(=O)N[C@@H](CO)C(=O)N[C@@H](Cc1c[nH]c2ccccc12)C(=O)N[C@@H](CS)C(=O)N[C@@H](CCC(=O)O)C(=O)N1CCC[C@H]1C(=O)NCC(=O)N[C@@H](Cc1c[nH]c2ccccc12)C(=O)N[C@@H](CS)C(=O)N[C@@H](CCCNC(=N)N)C(=O)O [Peptide R3P172] (H-HSDAVFTDNYTRLRKQVAAKKYLQSIKNKRYSWCEPGWCR-OH; C-terminus assumed) | – | – | – | EC50 (PACAP-R3): 2.6 nM
3 | HSDAVFTDNYTRLRKQLAAKKYLNDIKKGGT [Peptide R3P12] | 302 % of Basal | 324 % of Basal | – | glucose disposal in the rat [2]: enhance glucose disposal; elevation of plasma glucose 30 minutes after IPGTT ([2]; 1 nmole/kg s.c., vehicle: 160 mg/dl above basal, Figure 7): significantly reduced; Plasma Glucose (% of Basal) s.c. [2, 3]: 76 % of Basal
4 | HSDAVFTDNYTRLRKQLAAKKYLNDIKKKRY [Peptide R3P36] | 255 % of Basal | – | – | Plasma Glucose (% of Basal) i.v. ([2]; plasma glucose area under the curve after IPGTT (1 g/kg glucose), % of vehicle, 1 nmol/kg peptide i.v.): 73 % of Basal; Plasma Glucose (% of Basal) s.c. [2, 3]: 78 % of Basal
5 | HSDAVFTDNYTRLRKQMAAKKYLNSIKK [Peptide R3P51] | – | – | 259 % of Basal | –
6 | HSDAVFTDNYTRLRKQMAAKKYLNSIKNKRY [Peptide R3P55] | – | – | 208 % of Basal | –
7 | HSDAVFTDNYTRLRKQMAVKKYLNSIKKGGT [Peptide R3P9] | – | 221 % of Basal | – | –
8 | HSDAVFTDNYTRLRKQVAAKKYLQSIKK [Peptide R3P60] | – | – | 283 % of Basal | –
9 | HSDAVFTDNYTRLRKQVAAKKYLQSIKKKR [Peptide R3P77] | 388 % of Basal | – | – | –
10 | HSDAVFTDNYTRLRKQVAAKKYLQSIKNKRY [Peptide R3P66] | – | 184 % of Basal | 388 % of Basal | Plasma Glucose (% of Basal) s.c. [2, 3]: 82 % of Basal
11 | HSDAVFTDNYTRLRKQVAVKKYLQSIKKK [Peptide R3P81] | 302 % of Basal | – | – | –
12 | HSDAVFTENYTKLRKQLAAKKYLNDLKKGGT [Peptide R3P3] | – | – | – | glucose disposal in the rat [2]: enhance glucose disposal; insulin secretion from isolated rat islets (rat islets; 0.1-100 nM, 3 or 8 mM glucose, Figures 4A-4B): stimulates insulin secretion from isolated rat islets in a glucose-dependent fashion; also recorded: significantly enhances the release of insulin from islets in a concentration-dependent fashion
13 | HSDAVFTENYTKLRKQLAAKKYLNDLLNGGT [Peptide R3P10] | – | 174 % of Basal | – | –

Reference: patent publication EP1192182B1, “PITUITARY ADENYLATE CYCLASE ACTIVATING PEPTIDE (PACAP) RECEPTOR 3 (R3) AGONISTS AND THEIR PHARMACOLOGICAL METHODS OF USE” (priority 1999, dated 2001)
